Measured values published in PubChem BioAssay AID1508624 (National Center for Advancing Translational Sciences (NCATS), 2021).
Among all 48,000 compounds or so, about 120 (0.25%) were called active. Not shown: some 4% with an inconclusive outcome. Calls come from the whole dose curve; as a rule, active = well fitted activation curve with a large enough effect; inconclusive = small, poorly fitted or top-dose-only effect, or another doubt; inactive = no such curve, though single readings can be large or run the other way. The list shows a part of the results.

Test: Primary qHTS for Identification of Small Molecule Activators of Huntingtin-Antisense Promoter Activity; note: nearly all actives have a fitted effect of over 55% in size
Settings: HEK293 HTT-AS promoter firefly luciferase reporter, 24 h; series mostly up to 57.5 µM; activity change, positive = activation: at the top concentration
Outline: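 Luminescence was read after Dual-Glo reagent and a 10 min room-temperature incubation. Values were normalized to vehicle (0% activity) and zero RLU (-100% activity). Reporter HEK293 cells had been exposed to compounds (up to 57.5 uM final) for 24 h.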

Activity change, positive = activation, inactive:
CCOC(=O)c1ccc(NC(=O)c2csc3c2CCCCC3)cc1 5.75%, O=c1cc(-c2ccc(F)cc2)nc(SCc2nc(-c3ccccc3Cl)no2)[nH]1 -3.69%, COc1cc(C(=O)Nc2ccc(NC(=O)c3ccc(Br)cc3)cc2)cc(OC)c1OC -1.23% [at 11.5 µM, percent change from vehicle, -100% = no light], COc1ccc(CCn2c3c(c(=O)[nH]c2=O)C(NC(=O)c2ccccc2OC)(C(F)(F)F)C(=O)N3)cc1OC (stereo not given) 2.59%, CCC1CCCCN1C(=O)CSc1nc2c([nH]c3ccccc32)c(=O)n1-c1cccc(OC)c1 (stereo not given) -43.4%, Cc1oc(-c2cccc(Cl)c2)nc1CSc1nc2ncccc2[nH]1 -15.3%, Cc1ccc(-n2ccnc(NCCc3ccc(S(N)(=O)=O)cc3)c2=O)cc1C -24.9%, O=C(COc1ccccc1Cl)Nc1ccc(Cl)c(-c2nc3ccccc3o2)c1 9.86%, Cc1cccc(N2CCN(C(=O)c3cc4c(=O)n(C)c5ccccc5c4s3)CC2)c1C -9.16%, CC(=O)N1CCC2(CC1)OC(=O)C(C)=C2C(=O)NCc1ccc(Cl)cc1 -13.7%, CCc1ccc(CNC(=O)c2ccc3nc(C(C)C)oc3c2)cc1 18.4%, Cc1nn(-c2nc(-c3ccc(F)cc3)cc(C(F)(F)F)n2)c(C)c1Cl 8.98%, CC1=NN(c2ccccc2)C(=O)C1, COc1ccc(OC(C)c2nc3ccccc3[nH]2)cc1 (stereo not given) 12.3%, O=C(Nc1ccc2oc(-c3cccnc3)nc2c1)c1ccc(-c2ccccc2)o1 -34%, CCc1ccc(NC(=O)C(=O)NCC(c2cccnc2)N2CCN(C)CC2)cc1 (stereo not given) -8.22%, CCCc1ccc(OCC(=O)N2CCN(C(=O)COc3ccc(CCC)cc3OC)CC2)c(OC)c1 -25.9%, COc1cccc(NC(=O)CCc2nc(-c3cc(OC)c(OC)c(OC)c3)no2)c1 -27.9%, COc1ccc(CCNC(=O)c2cc(-c3ccc(Cl)cc3)on2)cc1OC -14.8%, CCOC(=O)c1ccc(NC(=O)c2cc3c(=O)n(C)c4ccccc4c3n2C)cc1 -5.23%, CCCCCNC(=O)N1CCC(CN(Cc2ccc(Cl)cc2)Cc2ccc([N+](=O)[O-])s2)C1 (stereo not given) -16.2%, Cn1c(=O)cc(SCC(=O)Nc2cccc(C#N)c2)c2ccc(Cl)cc21 -17.5%, Cc1ccc(C)c(NC(=O)C(=O)NCCc2csc(-c3cccc(F)c3)n2)c1 -5.35%, COc1cc2c(C(=O)N3CCN(c4ccc(C)cc4)C(C)C3)cn(CC(C)C)c(=O)c2cc1OC (stereo not given) -29.5%, Cc1nc2ccccn2c(=O)c1NC(=O)c1ccccc1Cl 27.6%, COc1ccc(N2CCN(C(=O)Cc3noc4ccc(C)cc34)CC2)cc1 -8.01%, COC(=O)C1=C(C)NC(C)=C(C(=O)O[C@@H]2CCCN(Cc3ccccc3)C2)[C@@H]1c1cccc([N+](=O)[O-])c1 -42.2%, CCc1ccc(NC(=O)Cn2ccn(-c3cccc(Cl)c3)c(=O)c2=O)cc1 -14.5%, COc1ccc(C(=O)N2CCC(c3ccncc3)CC2)cc1OC -23.7%, Cc1ccc(CN2CCc3nc(N4CCN(C)CC4)ncc3C2)cc1 -16.3%, COc1ccc(/C=C/c2nc(C#N)c(NC3CCCCC3)o2)cc1OC -12.3%, O=C(CCS(=O)(=O)c1cc2c3c(c1)CCN3C(=O)CC2)NCc1ccc(Cl)cc1 -13.5%, CCOC(=O)C1=C(CN2CCN(c3ccccc3F)CC2)NC(=O)NC1c1ccc(OC)cc1 (stereo not given) -24.5%, COC(=O)CSc1ccc2nnc(CCNS(=O)(=O)c3ccc(C)cc3)n2n1 -4.38%, CCc1cccc(C)c1Nc1c(-c2cccc(O)c2)nc2cnccn12 -22.4%, COc1ccccc1CNC(=O)Cn1c(-c2cccs2)cc2cc(F)ccc21 -7.89%, CCOc1ccccc1NC(=O)Cn1nc2c3cc(F)ccc3n(Cc3cccc(C)c3)cc-2c1=O -16.9%, Cn1c(=O)c2c(nc(NCCc3ccccc3)n2Cc2ccc(Cl)c(Cl)c2)n(C)c1=O -7.74%, O=C(O)CCNC(=O)c1ccccc1 4.26%, CC(C)c1nn2c(=O)cc(COC(=O)c3ccccc3NC(=O)c3cccs3)nc2s1 -10.8%, CCCN(Cc1cccs1)C(=O)Nc1ccccc1C -5.21%, COc1ccc(S(=O)(=O)NCCc2cn3ccsc3n2)cc1OC -11.8%, CCOc1ccc(N(Cc2cc3cc(C)ccc3[nH]c2=O)C(=O)c2cccc(Cl)c2)cc1 19%, O=C(N[C@H](CO)[C@H](O)c1ccc([N+](=O)[O-])cc1)C(Cl)Cl, Cc1nc2sccn2c(=O)c1S(=O)(=O)NCc1ccccc1 -9.72%, COc1ccc(Nc2nnc(-c3ccc(C)c(S(=O)(=O)N4CCN(C)CC4)c3)c3ccccc23)cc1 13.2% [at 11.5 µM, percent change from vehicle, -100% = no light], CCOc1ccccc1C1CC(=O)NC(C)=C1C(=O)OCc1ccc(C)cc1 (stereo not given) -33.2%, COC(=O)c1ccc(OC)c(CN2CCCN(Cc3ccc(C)cc3)S2(=O)=O)c1 -38.2%, Cc1oc2c(c1C(=O)Nc1ccc(Cl)cc1F)C1=NCCN1C=N2 2%, COc1ccc(Cl)cc1C(=O)NCC(c1ccc(N(C)C)cc1)N1CCOCC1 (stereo not given) -13.1%, Cc1cccc(C)c1OCC(=O)N(Cc1ccc(Cl)cc1)CC1CCCO1 (stereo not given) -26.1%, O=C(COc1ccccc1)Nc1ccc(C(=O)OCc2cc(=O)n3nc(C4CC4)sc3n2)cc1 10.1%, Cc1nc2nc(SCC(=O)NCc3ccccc3)nn2c(C)c1Cc1ccccc1Cl -13.5%, COc1ccc(-n2c(/C=C/c3cc(OC)c(OC)cc3OC)nc3cc4ccccc4cc3c2=O)cc1Cl -12.6%, Cc1ccc(OCCSc2nc3ccc(NC(=O)COc4ccc(F)cc4)cc3s2)cc1 -10.1%, CCN(CC)CCNC(=O)C1CCN(S(=O)(=O)c2c(C)noc2/C=C/c2ccccc2F)CC1 5.03%, O=C(Cc1cccs1)NC1CC(=O)N(c2ccccc2)C1 (stereo not given) -6.92%, COc1ccc(-c2c(C)nn3c(C(F)(F)F)cc(-c4ccc(Br)cc4)nc23)cc1 -16.7%, CCc1cccc(C)c1NC(=O)CN1CCCN(Cc2ccc(C)cc2)S1(=O)=O -25.1%, CCOC(=O)c1cc(-c2ccc(F)cc2)n(CC(=O)NC2CCCCC2)c1C -7.37%, Cc1cc(C)n2c(Nc3c(C)cccc3C)c(-c3ccsc3)nc2n1 -12%, O=C(CN1CCCN(Cc2ccccc2Cl)S1(=O)=O)Nc1ccc2c(c1)OCCO2 -8.07%, Cc1ccc(C)c(CN2CCC(CNC(=O)Cn3ncc4c([nH]c5ccccc54)c3=O)CC2)c1 -12%, CCn1c2ccccc2c2nnc(N3CCN(c4cccc(C)c4C)CC3)nc21 -2.32%, O=C(NCCCN1CCOCC1)c1ccc2c(c1)N(Cc1ccccc1)C(=O)c1ccccc1S2 -11.6%, NC/C=C/C(=O)O 0.226%, CCOc1ccc(NC(=O)NC(C)c2c(-n3cccc3)sc(C)c2C)cc1 (stereo not given) -18.4%, Cc1cccc(OCCCCn2nnc3sc4c(c3c2=O)CCC(C)C4)c1 (stereo not given) -5.2%, O=C(Cn1nc(N2CCN(c3ccccc3)CC2)ccc1=O)NCc1cccc(Cl)c1 -27.3%, CCOC(=O)CSc1nc2sc3c(c2c(=O)n1Cc1ccccc1)CC(C)CC3 (stereo not given) -13.9%, CCOc1ccccc1CNC(=O)CN1C(=O)CCCc2ccccc21 -5.44%, COc1ccccc1NC(=O)Cn1c(=O)n(Cc2ccccc2)c(=O)c2ccccc21 -24%, COc1ccc(CN2COc3ccc4c(C)cc(=O)oc4c3C2)cc1 -10.4%, COc1cccc(NC(=O)c2oc3ccccc3c2NC(=O)C23CC4CC(CC(C4)C2)C3)c1 12.1%, COc1cccc2c1Oc1nc(-c3ccccc3)nc(SCC(=O)N3CCCCC3)c1C2 12.9%, COc1ccc(NC(=O)C(=O)NCCc2csc(-c3ccc(Cl)cc3)n2)cc1 -14.5%, O=C(CCn1c(=O)c2cccn2c2ccc(F)cc21)NCCc1ccccc1Cl -14.9%, CCCOc1ccc(Nc2nc(SC)ncc2C(=O)OCC)cc1 -8.4%, COC(=O)c1ccc(NC(=O)Nc2nnc(N(C)C3CCCCC3)s2)cc1 -3.96%, Cc1coc2c(C)c3oc(=O)c(CC(=O)N4CCCCC4)c(C)c3cc12 -4.96%, Cc1cc(C)cc(-n2c(SCC(=O)Nc3nnc(C)s3)nc3c([nH]c4ccccc43)c2=O)c1 -17.7%, COC(=O)c1ccc(NC(=O)Cc2coc3cc(C)ccc23)cc1 -17.1%, COc1ccc(-c2nc3nc(C)cc(Nc4ccc(C(C)=O)cc4)n3n2)cc1 -9.56%, CCOc1ccc(-c2ccc(NS(=O)(=O)c3cc(C)c(C)cc3C)cc2)nn1 -27.1%, CNC1[C@H](O)C(O[C@@H]2C(O)C(O[C@H]3O[C@H]([C@@H](C)NC)CC[C@H]3N)[C@@H](N)C[C@H]2N)OC[C@]1(C)O (stereo not given in full) -15.1%, CCN(C(=O)COc1cc(=O)n(C)c2ccccc12)c1cccc(C(F)(F)F)c1 -16.1%, CCOc1ccc(CCNC(=O)c2ccc(CS(=O)(=O)Cc3ccccc3Cl)o2)cc1OCC -38.8%, Cc1ccc2c(c1)c1c3n2CCNC3CCC1 (stereo not given) -2.89%, CCOc1ccc(C(=O)Nc2ccc(-c3nc4cc(CC)ccc4o3)cc2)cc1 1.84%, O=C(c1cc2c(=O)[nH]c3ccccc3c2s1)N1CCN(c2ccc(F)cc2)CC1 -13.1%, CC(NC(=O)CCn1c(=O)c2cccn2c2ccc(F)cc21)c1ccccc1 (stereo not given) -3.28%, COc1cccc(N2CC(NC(=O)Cc3cccs3)CC2=O)c1 (stereo not given) -6.99%, Cc1ccc2c(c1)c1c(c(=O)n(-c3ccccc3)c(=O)n1CC(=O)N1CCCC1)n2C -3.9%, CCn1cc(C(=O)NCCc2ccc(C)cc2)c(=O)c2cc(S(=O)(=O)N(C)C)ccc21 -7.21% [at 11.5 µM, percent change from vehicle, -100% = no light], CN1C(=O)CC(=O)N(C)c2cc(S(=O)(=O)N(C)Cc3ccccc3)ccc21 5.88%
